The values below come from ChEMBL document CHEMBL5247649, “Comparative Efficacy and Selectivity of Pharmacological Inhibitors of DYRK and CLK Protein Kinases” (J Med Chem, 2023).

Series [1] deals with T1, Dual specificity tyrosine-phosphorylation-regulated kinase 1B (Homo sapiens, UniProt Q9Y463). As to the kind of experiment: biochemical. It counts as cell-based, Sf9.
Series [2] addresses T1, Dual specificity tyrosine-phosphorylation-regulated kinase 1B. In words: biochemical. The series is classed as cell-based, Sf9. The source holds these as a separate data set.
The nature of series [3]: in vitro. The note with it: mouse, ht-22.

Usually IC50 stands for the concentration that inhibits the measured activity by half. Lower therefore signals higher potency.

Each structure is given as a SMILES string. A value given as a limit tells only on which side of the number the result lay.

T1 sequence (Q9Y463 whole entry): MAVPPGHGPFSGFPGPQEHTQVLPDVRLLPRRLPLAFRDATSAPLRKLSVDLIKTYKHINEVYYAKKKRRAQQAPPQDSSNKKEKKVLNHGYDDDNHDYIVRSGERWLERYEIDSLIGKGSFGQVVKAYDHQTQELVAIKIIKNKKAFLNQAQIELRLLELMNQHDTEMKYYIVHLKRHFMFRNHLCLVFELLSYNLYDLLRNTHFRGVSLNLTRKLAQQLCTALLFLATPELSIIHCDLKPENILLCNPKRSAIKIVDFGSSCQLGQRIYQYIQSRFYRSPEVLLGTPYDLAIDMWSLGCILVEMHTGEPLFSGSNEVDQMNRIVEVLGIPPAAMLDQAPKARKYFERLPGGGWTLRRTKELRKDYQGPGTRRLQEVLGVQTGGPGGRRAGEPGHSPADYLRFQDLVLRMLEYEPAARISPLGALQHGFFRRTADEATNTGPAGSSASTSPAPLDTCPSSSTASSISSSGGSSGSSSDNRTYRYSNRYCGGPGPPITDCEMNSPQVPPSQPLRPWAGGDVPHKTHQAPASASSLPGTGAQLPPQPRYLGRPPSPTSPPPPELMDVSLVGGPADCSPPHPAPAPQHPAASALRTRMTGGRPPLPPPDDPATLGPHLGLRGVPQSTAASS

In series [1], `CCN1/C(=C/C(C)=O)Sc2ccc(O)cc21` registered a 50% inhibitory concentration (IC50) of 189 nM.

For the molecule `CC(=O)c1nccc2c1[nH]c1ccccc12`, in series [1], the half-maximal inhibitory concentration (IC50) was > 10000 nM.

In the case of `c1ccc(CNc2nc(Nc3cc(C4CC4)[nH]n3)c3sccc3n2)cc1`, the IC50 was found to be 1270 nM in series [1] and 1140 nM in series [2].

As to `c1ccc(-c2ccc3[nH]ncc3c2)cc1`, the IC50 in series [1] was found to be 350 nM; in series [2], 53.5 nM.

`COc1cc(N2CCN(C)CC2)ccc1Nc1nccc(-c2cn(C)c3cnccc23)n1`: the results for the IC50 in series [1] and in series [2] were 17.9 nM and 8.3 nM, respectively.

As for `O=C(O)c1nc2ccccc2c2[nH]c3c(I)cccc3c12`, the concentration for half-maximal inhibition (IC50) in series [1] was 4410 nM; in series [2], 7.7 nM.

In the case of `Cc1ccc([N+](=O)[O-])cc1S(=O)(=O)N(C)/N=C/c1cnc2ccc(Br)cn12`, the IC50 amounted to 3.7 nM in series [1] and 3.4 nM in series [2].

With `COc1ccc2c3ccnc(Cl)c3n(CC#N)c2c1`, the IC50 in series [1] worked out at 185 nM; in series [2] it was 38.4 nM.

Take `COc1ccc(/C=C2\SC(=S)NC2=O)cc1C#C[Si](C)(C)C`: the 50% inhibitory concentration (IC50) in series [1] was > 10000 nM.

Regarding `Oc1ccc(-c2cnc3[nH]cc(-c4ccc(F)cc4)c3c2)cc1O`, the IC50 was found to be 56.8 nM in series [1] and 64.4 nM in series [2].

In the case of `Cc1cccc(N(C)c2nccc(-c3cnn4ncccc34)n2)c1`, 317 nM corresponded to half-maximal inhibition in series [1] (IC50).

For the molecule `CC(C)Oc1ccc(F)c(-c2cnc(N)c(C(=O)Nc3cnccc3N3CCC[C@@H](C(=O)O)C3)n2)c1`, the IC50 in series [1] turned out to be 5 nM; in series [2], 11.9 nM.

As to `Cn1cc(-c2ccc3occ(-c4cccc(-c5ccncc5)c4)c3n2)cn1`, the IC50 in series [1] came out at 1730 nM.

For the molecule `CCN(CC)Cc1ccc(OC)c(-c2cc3c(-c4ccc(C(=O)O)c(C(C)C)c4)ccnc3[nH]2)c1`, in series [1], the concentration for half-maximal inhibition (IC50) was found to be 3500 nM.

As for `CN(C)c1nccc(-c2cnn3ncccc23)n1`, the IC50 in series [1] came out at 236 nM.

Regarding `Oc1ccc(-c2n[nH]c3ncc(-c4ccc(O)c(O)c4)cc23)cc1`, the half-inhibitory concentration (IC50) in series [1] was 5.9 nM; in series [2] it was 23.9 nM.

For the molecule `O=C1NC(=Nc2c(Cl)cccc2Cl)S/C1=C\c1ccc2nccnc2c1`, the concentration for half-maximal inhibition (IC50) in series [1] was found to be 40.6 nM; in series [2], 5.4 nM.

As to `CN1Cc2nn(C)c(C#N)c2-c2cnc3[nH]c(F)c(c3c2)-c2cn(nc2C(F)(F)F)CCCC1=O`, the IC50 in series [1] was 3010 nM; in series [2], 367 nM.

Regarding `Cc1cc(C(=O)NC2Nc3cccc(C)c3N2[C@H]2CCCCN(C(=O)/C=C/CN(C)C)C2)ccn1` (stereo not given in full), in series [1], the 50% inhibitory concentration (IC50) was > 10000 nM.

Take `CCNc1cc(Nc2ccc(C(=O)N3CCC(N4CCOCC4)CC3)cc2OC)nc2[nH]cc(C(F)(F)F)c12`: the half-inhibitory concentration (IC50) was determined as 80.5 nM in series [1] and 104 nM in series [2].

Turning to `COC1=CC2C(=O)NC3=Cc4ccc(OC)cc4C(=C1OC)C32` (stereo not given), the results for the half-inhibitory concentration (IC50) in series [1] and in series [2] were 17.4 nM and 25.5 nM, respectively.

In the case of `O=C1Nc2cc(S(=O)(=O)Cc3c(Cl)cccc3Cl)ccc2S/C1=C\c1ccc(O)c([N+](=O)[O-])c1`, the IC50 in series [1] stood at 2240 nM.

Molecule `O=C1NC(NC2CCCCCC2)=N/C1=C\c1ccc2ncsc2c1` came in with a concentration for half-maximal inhibition (IC50) at 48 h in series [3] of 10800 nM.

Turning to `O=C(Nc1ccc2[nH]ncc2c1)c1csc(Nc2ccccc2)n1`, the IC50 amounted to 384 nM in series [1] and 2800 nM in series [2].

For the molecule `Cn1cc(-c2ccc3cnc(NC(=O)C4CCN(S(C)(=O)=O)CC4)cc3c2)cn1`, the IC50 in series [1] was found to be 10.1 nM; in series [2] it was 4.8 nM.

Regarding `CCOc1ccc2nc(N3CCCN(C(=S)Nc4ccccc4F)CC3)c(C#N)cc2c1`, the IC50 in series [1] is > 10000 nM.

In the case of `CN1CCN(C(=O)C(C)(C)c2ccc(C(=O)Cc3cn4cc(-c5ccncc5)ccc4n3)cc2)CC1`, the IC50 is 681 nM in series [1] and 364 nM in series [2].

As for `COc1ccc2sc(-c3cncc(NC(C)=O)c3)nc2c1`, the figures for the half-maximal inhibitory concentration (IC50) in series [1] and in series [2] were 1730 nM and 405 nM, respectively.

Take `CC(C)CN1CCC(C(=O)Nc2cc3cc(-c4cnn(C)c4)ccc3cn2)CC1`: the IC50 turned out to be 15.2 nM in series [1] and 9.7 nM in series [2].

Consider `CCN1CCN(Cc2ccc(Nc3ncc(F)c(-c4cc(F)c5nc(C)n(C(C)C)c5c4)n3)nc2)CC1` [ABEMACICLIB], for which the results for the IC50 in series [1] and in series [2] were 3.5 nM and 12.8 nM, respectively.

For `CC(C)(c1ccc(O)cc1)c1ccc(O)cc1` [BISPHENOL A], the 50% inhibitory concentration (IC50) in series [1] was > 10000 nM.

As to `c1cc(OCCN2CCCCC2)cc(-c2n[nH]c3ccc(-c4nc[nH]n4)cc23)c1` [CC-401], the values for the IC50 in series [1] and in series [2] were 250 nM and 218 nM, respectively.

Consider `COc1cc(/C=C/C(=O)CC(=O)/C=C/c2ccc(O)c(OC)c2)ccc1O` [CURCUMIN], for which the results for the IC50 in series [1] and in series [2] were > 10000 nM and 148 nM, respectively.

Regarding `O=c1c2c(O)cc(O)cc2oc2c(O)ccc(O)c12` [DEMETHYLBELLIDIFOLIN], in series [1], the concentration for half-maximal inhibition (IC50) came to 268 nM.

Take `O=C(O[C@@H]1Cc2c(O)cc(O)cc2O[C@@H]1c1cc(O)c(O)c(O)c1)c1cc(O)c(O)c(O)c1` [EPIGALOCATECHIN GALLATE]: the 50% inhibitory concentration (IC50) is 714 nM in series [1] and > 10000 nM in series [2].

In the case of `COc1ccc2c(c1)[nH]c1c(C)nccc12` [HARMINE], the values for the concentration for half-maximal inhibition (IC50) in series [1] and in series [2] were 293 nM and 94 nM, respectively.

Consider `COc1cc(CCc2c(O)ccc(O[C@@H]3O[C@H](CO)[C@@H](O)[C@H](O)[C@H]3O)c2C(C)=O)ccc1O` [SCORZODIHYDROSTILBENE A], for which, in series [1], the IC50 was > 10000 nM.
